Data as given in the supplement of paper PMC8728848.
The list shows a part of the results.

Columns and labels:
Experiment in all cases: glycan array binding signal (z-score within array); higher = stronger binding
Conditions in all cases: glycan notation: IUPAC condensed, linker removed
[1] = biological target: Neu5Ac(a2-6)GlcNAc(b1-4)GlcNAc(b1-4)GlcNAc
How it was run: (§1)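 The binding signal is a Z-score computed within each array. Data were drawn from 3228 arrays in the Consortium for Functional Glycomics database, restricted to those with a known protein sequence. Scores were averaged over arrays of the same protein sequence at different concentrations or buffers, and over linkers, and negative values can be taken as non-binding.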

Neu5Ac(a2-8)Neu5Ac = biological target: Neu5Ac(a2-8)Neu5Ac
How it was run: as §1

[2] = biological target: Neu5Ac(a2-8)Neu5Ac(a2-3)Gal(b1-3)GalNAc(b1-4)[Neu5Ac(a2-3)]Gal(b1-4)Glc
How it was run: as §1

[3] = biological target: Neu5Ac(a2-8)Neu5Ac(a2-3)Gal(b1-3)GalNAc(b1-4)[Neu5Ac(a2-8)Neu5Ac(a2-3)]Gal(b1-4)Glc
How it was run: as §1

[4] = biological target: Neu5Ac(a2-8)Neu5Ac(a2-3)Gal(b1-4)Glc
How it was run: as §1

[5] = biological target: Neu5Ac(a2-8)Neu5Ac(a2-3)Gal(b1-4)GlcNAc
How it was run: as §1

[6] = biological target: Neu5Ac(a2-8)Neu5Ac(a2-3)[Gal(b1-3)GalNAc(b1-4)]Gal(b1-4)Glc
How it was run: as §1

[7] = biological target: Neu5Ac(a2-8)Neu5Ac(a2-3)[GalNAc(b1-4)]Gal(b1-4)Glc
How it was run: as §1

[8] = biological target: Neu5Ac(a2-8)Neu5Ac(a2-8)Neu5Ac
How it was run: as §1

[9] = biological target: Neu5Ac(a2-8)Neu5Ac(a2-8)Neu5Ac(a2-3)Gal(b1-4)Glc
How it was run: as §1

[10] = biological target: Neu5Ac(a2-8)Neu5Ac(a2-8)Neu5Ac(a2-3)[Gal(b1-3)GalNAc(b1-4)]Gal(b1-4)Glc
How it was run: as §1

[11] = biological target: Neu5Ac(a2-8)Neu5Ac(a2-8)Neu5Ac(a2-3)[GalNAc(b1-4)]Gal(b1-4)Glc
How it was run: as §1

[12] = biological target: Neu5Ac(a2-8)Neu5Ac(a2-8)Neu5Ac(a2-8)Neu5Ac(a2-3)[GalNAc(b1-4)]Gal(b1-4)Glc
How it was run: as §1

[13] = biological target: Neu5Ac(a2-8)Neu5Gc(a2-3)Gal(b1-4)GlcNAc
How it was run: as §1

[14] = biological target: Neu5Ac(b2-6)Gal(b1-4)GlcNAc
How it was run: as §1

Neu5Ac(b2-6)GalNAc = biological target: Neu5Ac(b2-6)GalNAc
How it was run: as §1

[15] = biological target: Neu5Ac9Ac(a2-3)Gal(b1-3)GlcNAc
How it was run: as §1

[16] = biological target: Neu5Ac9Ac(a2-3)Gal(b1-4)GlcNAc
How it was run: as §1

[17] = biological target: Neu5Ac9Ac(a2-6)Gal(b1-4)GlcNAc
How it was run: as §1

[18] = biological target: Neu5Gc(a2-3)Gal(b1-3)GlcNAc
How it was run: as §1

[19] = biological target: Neu5Gc(a2-3)Gal(b1-3)[Fuc(a1-4)]GlcNAc
How it was run: as §1

Neu5Gc(a2-3)Gal(b1-4)Glc = biological target: Neu5Gc(a2-3)Gal(b1-4)Glc
How it was run: as §1

[20] = biological target: Neu5Gc(a2-3)Gal(b1-4)GlcNAc
How it was run: as §1

[21] = biological target: Neu5Gc(a2-3)Gal(b1-4)GlcNAc(b1-3)Gal(b1-4)GlcNAc(b1-2)Man(a1-3)[Neu5Gc(a2-3)Gal(b1-4)GlcNAc(b1-3)Gal(b1-4)GlcNAc(b1-2)Man(a1-6)]Man(b1-4)GlcNAc(b1-4)GlcNAc
How it was run: as §1

[22] = biological target: Neu5Gc(a2-3)Gal(b1-4)[Fuc(a1-3)]GlcNAc
How it was run: as §1

[23] = biological target: Neu5Gc(a2-6)Gal(b1-4)GlcNAc
How it was run: as §1

Neu5Gc(a2-6)GalNAc = biological target: Neu5Gc(a2-6)GalNAc
How it was run: as §1

[24] = biological target: Neu5Gc(a2-8)Neu5Ac(a2-3)Gal(b1-4)GlcNAc
How it was run: as §1

[25] = biological target: Neu5Gc(a2-8)Neu5Gc(a2-3)Gal(b1-4)GlcNAc
How it was run: as §1

[26] = biological target: Neu5Gc(a2-8)Neu5Gc(a2-3)Gal(b1-4)GlcNAc(b1-3)Gal(b1-4)GlcNAc
How it was run: as §1

[27] = biological target: Neu5Gc(a2-8)Neu5Gc(a2-6)Gal(b1-4)GlcNAc
How it was run: as §1

[28] = biological target: Neu5Gc(b2-6)Gal(b1-4)GlcNAc
How it was run: as §1

B1: Cp ZmpB (Clostridium perfringens), Q0TR08 (protein)
chain: MNKRKIAAIILATMITNLSATTIDVLAQELNTKNNSKVEVSHDDESHQARVSKFDLYNSDKLDAYNQEFQVSRSNIKSINNNGGKYNSSTIDKAIDGNLETHWETGKPNDANFTNEVVVTFNEITNIDRIVYSARRDSARGKGFAKEFEIYASLKDEGDDFNLVSSGEYTESTRDLVEIKFNPTDFKRLKFKFKKADQNWASAAEFMFYKEDKLNEKFNGLFTDSSMNKVSEEFNTLEKLNAFENELKDHPIYDLYKEGLNNARAILTETSENPTKATLGQITYNLNDDYNNQYRMPYKNIKAIKNNGRHYAAQNIEKAIDNDVNTYWETGTLNSSSFNNEVEVEFNDLVTLDRIVYGSRQSDLKGFAEEVYIYASRTSKGDTYKLVATGAHEATKGLVEAKFEPTEFKRVKFKFKKSKQNSATLNELMFYKPDEVYSSIPKLFTDGTMSELSEEFNSLEKINAFKEKAKNHPLYNDFNETIELAESLISNPRKEDVLELEMRGDSISEAKKRKVWNFQDWQITGLSARAGDKITVYVDVAEGDPTPTLLYKQSLTQHGGATSFQLKPGKNEITIPEINYESNGIPKDVIQGGDLFFTNYKSDSQKRAPKVRIEGASKYPVFILGKSDENEVMKELEAYVEKIKAEPKTTPNIFAVSSNKSLEFVQATYALDWYKKNNKTPKYTAEQWDQYIADAMGFWGFDNSKDVNSDFNFRIMPMVKNLSGGAFMNAGNGVIGIRPGNQDAILAANKGWGVAHELGHNFDTGGRTIVEVTNNMMPLFFESKYKTKTRITDQNIWENNTYPKVGLDDYSNNELYNKADSTHLAQLAPLWQLYLYDNTFYGKFERQFRERDFGNKNREDIYKSWVVAASDAMELDLTEFFARHGIRVDDKVKEDLAKYPKPDKKIYYLNDLAMNYKGDGFTENAKVSVSTSGSNGNIKLSFSVDDENKDNILGYEIRRDGKYVGFTSNDSFVDTKSNLDEDGVYVVTPYDRKLNTLNPIEVNALQPTLSVNPVITLALGEEFNEEEYIVAKDIKGNSLSESVKVKSSNVNTSKVGEYEVLYSLEDSKGNEYTKTSKVNVVSRKEYMSDLTPKQSSNGWGTVRKDKSISGGVIGLTRDGDFVDYNKGLGLHSNAEYVYDLEGKDYDYFESYVGVDKAMSSRPASSVIFKVLVDGEEKFNSGVMRSTTPQKYVKVDVKNAKELKLIVNDAGDGDSSDHASFGDAKLATLSSKPIIKGENLAYSMDEKVDLMKGITATDIEDGNITSKVQIKSSDFVEGKSGIFTVVYSVTDSDGLTSECSRTIAVTDKETQLSDLNWKSATIGSGSVRKDRAVSGNQIRLLNEDNSVETFAKGIGTHSYSEIVYNSEGYDIFDTWVGIDRHVADKKVSSVKFKVYVDGELKAETDVMRIDTPKKRLVVDVRNSKEIKLVVDVADNGNNWDHADWADAKFRNLAEYDASELNKAIEEAKKLDLNNYTEESSEALKNAISKGEEALLSKDKETINSALEELNKEMNSLVKVDLNAVINIPDKYLLKSIQNQLNKTGDITLGDMYSLTTLTLSGVEDLTGLENAKNLETLNMDYNEVKDLRPLSKLKKLNTLNAQEQFIAAGELKPSNGKVIGDSKVYNREGKNVAKTIRVVDKNGNTILEQDAKDEFTINTKDLSSGLYGVHVLFEDEGFSGVMFYLFNV
glycan array binding signal (z-score) [1]: 0.044 | glycan array binding signal (z-score) (Neu5Ac(a2-8)Neu5Ac): -0.333 | glycan array binding signal (z-score) [2]: -0.251 | glycan array binding signal (z-score) [3]: 0.11 | glycan array binding signal (z-score) [4]: -0.182 | glycan array binding signal (z-score) [5]: -0.423 | glycan array binding signal (z-score) [6]: 0.001 | glycan array binding signal (z-score) [7]: -0.396 | glycan array binding signal (z-score) [8]: -0.002 | glycan array binding signal (z-score) [9]: 0.463 | glycan array binding signal (z-score) [10]: -0.346 | glycan array binding signal (z-score) [11]: 0.629 | glycan array binding signal (z-score) [12]: -0.114 | glycan array binding signal (z-score) [13]: 0.118 | glycan array binding signal (z-score) [14]: -0.41 | glycan array binding signal (z-score) (Neu5Ac(b2-6)GalNAc): -0.216 | glycan array binding signal (z-score) [15]: -0.424 | glycan array binding signal (z-score) [16]: 1.71 | glycan array binding signal (z-score) [17]: -0.353 | glycan array binding signal (z-score) [18]: -0.326 | glycan array binding signal (z-score) [19]: 0.043 | glycan array binding signal (z-score) (Neu5Gc(a2-3)Gal(b1-4)Glc): -0.044 | glycan array binding signal (z-score) [20]: -0.31 | glycan array binding signal (z-score) [21]: -0.288 | glycan array binding signal (z-score) [22]: 2.05 | glycan array binding signal (z-score) [23]: -0.374 | glycan array binding signal (z-score) (Neu5Gc(a2-6)GalNAc): -0.123 | glycan array binding signal (z-score) [24]: -0.265 | glycan array binding signal (z-score) [25]: -0.299 | glycan array binding signal (z-score) [26]: -0.067 | glycan array binding signal (z-score) [27]: -0.462 | glycan array binding signal (z-score) [28]: -0.284
